Test results: patent publication US20260258029A1, “CHROMANE AMIDINE MONOBACTAM COMPOUNDS FOR THE TREATMENT OF BACTERIAL INFECTIONS” (priority 2022, published 2026)
The name of at least one read-out is uncertain.

How the values were obtained:
Assay type in all cases: cell-based
[1] = test system: Pseudomonas aeruginosa expressing AmpC (CL5701); assay: Growth inhibitory concentration (OD600), P. aeruginosa CL5701, with relebactam; settings: lowest concentration inhibiting 95% of bacterial growth, BLi relebactam 4 μg/mL, 35±2° C., 22 hours
Experimental: (§1) The concentrations of compounds required to inhibit the growth of various strains of bacteria were determined in an assay that assessed bacterial growth by measuring optical density at 600 nm (OD600). The bacterial strains tested included the clinical strains Escherichia coli expressing NDM-1 (CLB30016), Klebsiella pneumoniae expressing KPC-1 (CL6569), Acinetobacter baumannii expressing TEM-1, AmpC, and Oxa-24/40 (CL6188) and Pseudomonas aeruginosa expressing AmpC (CL5701). All compounds were tested in the presence of a R lactamase inhibitor (BLi, Relebactam) in 384-well microplates.
(§2) The clinical strains were stored as frozen single use stocks, thawed and diluted into 1.1× cation-adjusted Mueller-Hinton II broth to achieve approximately 2×10^5 CFU/mL. Test compounds were dissolved in DMSO and diluted 1:50 in the assay, resulting in a final concentration range of 100 μM to 0.098 μM. On the day of the assay, 1 μL of test compound was added to the plate followed by 4 μL of 50 μg/mL BLi in MOPS buffer and 45 μL of diluted bacteria. Plates were centrifuged at 1000 rpm for 30 seconds, shaken at approximately 800 rpm for 1 minute, and incubated at 35±2° C. for 22 hours. The concentration of BLi used in the assay was 4 μg/mL. At the end of the incubation, absorbance at 600 nm was determined using a spectrophotometer. Inhibition was quantitated by identifying the lowest concentration of test compound that was required to inhibit 95% of the growth of the bacteria. The results for Examples 1-39 are reported in Table I, expressed as the concentration of compound that inhibited 95% of bacterial growth (Minimum Inhibitory Threshold Concentration; MITC95).

[2] = test system: Escherichia coli expressing NDM-1 (CLB30016); assay: Growth inhibitory concentration (OD600), E. coli CLB30016, with relebactam; settings: lowest concentration inhibiting 95% of bacterial growth, BLi relebactam 4 μg/mL, 35±2° C., 22 hours
Experimental: as §1, §2

[3] = test system: Acinetobacter baumannii expressing TEM-1, AmpC, and Oxa-24/40 (CL6188); settings: lowest concentration inhibiting 95% of bacterial growth; BLi relebactam 4 μg/mL; 35±2° C., 22 hours; OD600
Experimental: as §1, §2

SMILES	PA—CL5701 MITC95 [1]	EC—CLB30016 MITC95 [2]	AB—CL6188 MITC95 [3]
CC1(C)[C@H](NC(=O)/C(=N\O[C@](C)(C(=O)O)[C@H]2CCc3cc(C(=N)NC[C@H]4CC5(C[C@@H](N)C5)C4)ccc3O2)c2csc(N)n2)C(=O)N1OS(=O)(=O)O (single isomer, unassigned) [Compound 22]	3.125 µM	6.25 µM	6.25 µM
CC1(C)[C@H](NC(=O)/C(=N\O[C@](C)(C(=O)O)[C@H]2CCc3cc(C(=N)NC[C@H]4CC5(C[C@@H](N)C5)C4)ccc3O2)c2csc(N)n2)C(=O)N1OS(=O)(=O)O (single isomer, unassigned) [Compound 23]	1.563 µM	6.25 µM	6.25 µM
CC1(C)[C@H](NC(=O)/C(=N\O[C@](C)(C(=O)O)[C@H]2CCc3cc(C(=N)NC[C@]4(C)C[C@@H](N)C4)ccc3O2)c2csc(N)n2)C(=O)N1OS(=O)(=O)O (single isomer, unassigned) [Compound 26]	3.125 µM	6.25 µM	6.25 µM
CC1(C)[C@H](NC(=O)/C(=N\O[C@](C)(C(=O)O)[C@H]2CCc3cc(C(=N)NC[C@]4(C)C[C@@H](N)C4)ccc3O2)c2csc(N)n2)C(=O)N1OS(=O)(=O)O (single isomer, unassigned) [Compound 27]	1.563 µM	6.25 µM	6.25 µM
CC1(C)[C@H](NC(=O)/C(=N\O[C@](C)(C(=O)O)[C@H]2CCc3cc(C(=N)NC[C@H]4C[C@H](CN)C4)ccc3O2)c2csc(N)n2)C(=O)N1OS(=O)(=O)O (single isomer, unassigned) [Compound 28]	1.563 µM	6.25 µM	3.125 µM
CC(C)(C)OC(=O)Nc1nc(/C(=N/O[C@](C)(C(=O)OC(C)(C)C)[C@H]2CCc3cc(C(=N)NC[C@H]4CNCCO4)ccc3O2)C(=O)N[C@@H]2C(=O)N(OS(=O)(=O)O)C2(C)C)cs1 (single isomer, unassigned) [Compound 31]	3.125 µM	6.25 µM	12.5 µM
CC1(C)[C@H](NC(=O)/C(=N\O[C@](C)(C(=O)O)[C@H]2CCc3cc(C(=N)NCCCC4CCCN4)ccc3O2)c2csc(N)n2)C(=O)N1OS(=O)(=O)O (single isomer, unassigned) [Compound 34]	1.563 µM	6.25 µM	6.25 µM
CC1(C)[C@H](NC(=O)/C(=N\O[C@](C)(C(=O)O)[C@H]2CCc3cc(C(=N)NCCCC4CCCN4)ccc3O2)c2csc(N)n2)C(=O)N1OS(=O)(=O)O (single isomer, unassigned) [Compound 35]	1.563 µM	3.125 µM	6.25 µM
CC1(C)[C@H](NC(=O)/C(=N\O[C@](C)(C(=O)O)[C@H]2CCc3cc(C(=N)NCCCC4CCN4)ccc3O2)c2csc(N)n2)C(=O)N1OS(=O)(=O)O (single isomer, unassigned) [Compound 36]	1.563 µM	3.125 µM	3.125 µM
CC1(C)[C@H](NC(=O)/C(=N\O[C@](C)(C(=O)O)[C@H]2CCc3cc(C(=N)NCCCC4CCN4)ccc3O2)c2csc(N)n2)C(=O)N1OS(=O)(=O)O (single isomer, unassigned) [Compound 37]	1.563 µM	3.125 µM	6.25 µM
C[C@@H](CC1CNC1)NC(=N)c1ccc2c(c1)CC[C@H]([C@](C)(O/N=C(\C(=O)N[C@@H]1C(=O)N(OS(=O)(=O)O)C1(C)C)c1csc(N)n1)C(=O)O)O2 (single isomer, unassigned) [Compound 46]	1.563 µM	12.5 µM	6.25 µM
C[C@H](CC1CNC1)NC(=N)c1ccc2c(c1)CC[C@H]([C@](C)(O/N=C(\C(=O)N[C@@H]1C(=O)N(OS(=O)(=O)O)C1(C)C)c1csc(N)n1)C(=O)O)O2 (single isomer, unassigned) [Compound 47]	6.25 µM	25 µM	12.5 µM
CC1(C)[C@H](NC(=O)/C(=N\O[C@](C)(C(=O)O)[C@H]2CCc3cc(C(=N)NCc4ccc5c(c4)CC[C@@H]5N)ccc3O2)c2csc(N)n2)C(=O)N1OS(=O)(=O)O (single isomer, unassigned) [Compound 48]	1.563 µM	3.125 µM	6.25 µM
CC1(C)[C@H](NC(=O)/C(=N\O[C@](C)(C(=O)O)[C@H]2CCc3cc(C(=N)NCc4ccc5c(c4)CC[C@H]5N)ccc3O2)c2csc(N)n2)C(=O)N1OS(=O)(=O)O (single isomer, unassigned) [Compound 49]	1.563 µM	3.125 µM	3.125 µM
CC1(C)[C@H](NC(=O)/C(=N\O[C@](C)(C(=O)O)[C@H]2CCc3cc(C(=N)NC[C@@H]4C[C@H]4CCN)ccc3O2)c2csc(N)n2)C(=O)N1OS(=O)(=O)O (single isomer, unassigned) [Compound 64]	1.563 µM	6.25 µM	6.25 µM
CC1(C)[C@H](NC(=O)/C(=N\O[C@](C)(C(=O)O)[C@H]2CCc3cc(C(=N)NC[C@H]4C[C@@H]4CCN)ccc3O2)c2csc(N)n2)C(=O)N1OS(=O)(=O)O (single isomer, unassigned) [Compound 65]	3.125 µM	3.125 µM	6.25 µM
COCC1CC(CNC(=N)c2ccc3c(c2)CC[C@H]([C@](C)(O/N=C(\C(=O)N[C@@H]2C(=O)N(OS(=O)(=O)O)C2(C)C)c2csc(N)n2)C(=O)O)O3)CCN1 (stereo in doubt) [Compound 61, (S)-2-((((Z)-1-(2-aminothiazol-4-yl)-2-(((S)-2,2-dimethyl-4-oxo-1-(sulfooxy)azetidin-3-yl)amino)-2-oxoethylidene)amino)oxy)-2-((R)-6-(N-(((2R,4S)-2-(methoxymethyl)-piperidin-4-yl)methyl)carbamimidoyl)chroman-2-yl)propanoic acid]	3.125 µM	6.25 µM	6.25 µM
COCC1C[C@H](CNC(=N)c2ccc3c(c2)CC[C@H]([C@](C)(O/N=C(\C(=O)N[C@@H]2C(=O)N(OS(=O)(=O)O)C2(C)C)c2csc(N)n2)C(=O)O)O3)CCN1 (stereo in doubt) [Compound 62, (S)-2-((((Z)-1-(2-aminothiazol-4-yl)-2-(((S)-2,2-dimethyl-4-oxo-1-(sulfooxy)azetidin-3-yl)amino)-2-oxoethylidene)amino)oxy)-2-((R)-6-(N-(((2R,4R)-2-(methoxymethyl)-piperidin-4-yl)methyl)carbamimidoyl)chroman-2-yl)propanoic acid]	3.125 µM	12.5 µM	6.25 µM
CC1(C)[C@H](NC(=O)/C(=N\O[C@](C)(C(=O)O)[C@H]2CCc3cc(C(=N)NCCC4CC4CN)ccc3O2)c2csc(N)n2)C(=O)N1OS(=O)(=O)O (stereo in doubt) [Compound 67, (S)-2-((R)-6-(N-(2-((1R,2S)-2-(aminomethyl)cyclopropyl)ethyl)carbamimidoyl)-chroman-2-yl)-2-((((Z)-1-(2-aminothiazol-4-yl)-2-(((S)-2,2-dimethyl-4-oxo-1-(sulfooxy)azetidin-3-yl)amino)-2-oxoethylidene)amino)oxy)propanoic acid]	1.563 µM	6.25 µM	6.25 µM
CC1(C)[C@H](NC(=O)/C(=N\O[C@](C)(C(=O)O)[C@H]2CCc3cc(C(=N)NC[C@]4(F)CC[C@H](N)CC4)ccc3O2)c2csc(N)n2)C(=O)N1OS(=O)(=O)O [Compound 1, (S)-2-((R)-6-(N-(((1r,4R)-4-amino-1-fluorocyclohexyl)methyl)carbamimidoyl)chroman-2-yl)-2-((((Z)-1-(2-aminothiazol-4-yl)-2-(((S)-2,2-dimethyl-4-oxo-1-(sulfooxy)azetidin-3-yl)amino)-2-oxoethylidene)amino)oxy)propanoic Acid]	1.563 µM	3.125 µM	6.25 µM
CC1(C)[C@H](NC(=O)/C(=N\O[C@](C)(C(=O)O)[C@H]2CCc3cc(C(=N)NC[C@]4(F)CC[C@@H](N)CC4)ccc3O2)c2csc(N)n2)C(=O)N1OS(=O)(=O)O [Compound 2, (S)-2-((R)-6-(N-(((1s,4S)-4-amino-1-fluorocyclohexyl)-methyl)carbamimidoyl)chroman-2-yl)-2-((((Z)-1-(2-aminothiazol-4-yl)-2-(((S)-2,2-dimethyl-4-oxo-1-(sulfooxy)azetidin-3-yl)amino)-2-oxoethylidene)amino)-oxy)propanoic acid]	1.563 µM	3.125 µM	6.25 µM
